Laboratory results reported in PubChem BioAssay AID504333 (National Center for Advancing Translational Sciences (NCATS), 2011).
The whole screen tested about 360,000 compounds, of which about 16,000 (4.4%) were called active. Inconclusive means that the source gave no clear call. Such entries were picked first, then a sample of the others. Calls come from the whole dose curve; as a rule, active = well fitted inhibition curve with a large enough effect; inconclusive = small, poorly fitted or top-dose-only effect; inactive = no such curve, though single readings can be large or run the other way. A potency beside an inconclusive call is a rough fit, not a confirmed value.

These compounds were tested against Bromodomain adjacent to zinc finger domain protein 2B (Homo sapiens) (UniProt Q9UIF8) (assay: qHTS Assay for Inhibitors of BAZ2B). Details: AlphaScreen BAZ2B-H3K14Ac peptide displacement; activity change, negative = inhibition: at 114 µM (top of the series).
UniProt Q9UIF8, sequence (Q9UIF8 whole entry, looked up, the tested form may be a part): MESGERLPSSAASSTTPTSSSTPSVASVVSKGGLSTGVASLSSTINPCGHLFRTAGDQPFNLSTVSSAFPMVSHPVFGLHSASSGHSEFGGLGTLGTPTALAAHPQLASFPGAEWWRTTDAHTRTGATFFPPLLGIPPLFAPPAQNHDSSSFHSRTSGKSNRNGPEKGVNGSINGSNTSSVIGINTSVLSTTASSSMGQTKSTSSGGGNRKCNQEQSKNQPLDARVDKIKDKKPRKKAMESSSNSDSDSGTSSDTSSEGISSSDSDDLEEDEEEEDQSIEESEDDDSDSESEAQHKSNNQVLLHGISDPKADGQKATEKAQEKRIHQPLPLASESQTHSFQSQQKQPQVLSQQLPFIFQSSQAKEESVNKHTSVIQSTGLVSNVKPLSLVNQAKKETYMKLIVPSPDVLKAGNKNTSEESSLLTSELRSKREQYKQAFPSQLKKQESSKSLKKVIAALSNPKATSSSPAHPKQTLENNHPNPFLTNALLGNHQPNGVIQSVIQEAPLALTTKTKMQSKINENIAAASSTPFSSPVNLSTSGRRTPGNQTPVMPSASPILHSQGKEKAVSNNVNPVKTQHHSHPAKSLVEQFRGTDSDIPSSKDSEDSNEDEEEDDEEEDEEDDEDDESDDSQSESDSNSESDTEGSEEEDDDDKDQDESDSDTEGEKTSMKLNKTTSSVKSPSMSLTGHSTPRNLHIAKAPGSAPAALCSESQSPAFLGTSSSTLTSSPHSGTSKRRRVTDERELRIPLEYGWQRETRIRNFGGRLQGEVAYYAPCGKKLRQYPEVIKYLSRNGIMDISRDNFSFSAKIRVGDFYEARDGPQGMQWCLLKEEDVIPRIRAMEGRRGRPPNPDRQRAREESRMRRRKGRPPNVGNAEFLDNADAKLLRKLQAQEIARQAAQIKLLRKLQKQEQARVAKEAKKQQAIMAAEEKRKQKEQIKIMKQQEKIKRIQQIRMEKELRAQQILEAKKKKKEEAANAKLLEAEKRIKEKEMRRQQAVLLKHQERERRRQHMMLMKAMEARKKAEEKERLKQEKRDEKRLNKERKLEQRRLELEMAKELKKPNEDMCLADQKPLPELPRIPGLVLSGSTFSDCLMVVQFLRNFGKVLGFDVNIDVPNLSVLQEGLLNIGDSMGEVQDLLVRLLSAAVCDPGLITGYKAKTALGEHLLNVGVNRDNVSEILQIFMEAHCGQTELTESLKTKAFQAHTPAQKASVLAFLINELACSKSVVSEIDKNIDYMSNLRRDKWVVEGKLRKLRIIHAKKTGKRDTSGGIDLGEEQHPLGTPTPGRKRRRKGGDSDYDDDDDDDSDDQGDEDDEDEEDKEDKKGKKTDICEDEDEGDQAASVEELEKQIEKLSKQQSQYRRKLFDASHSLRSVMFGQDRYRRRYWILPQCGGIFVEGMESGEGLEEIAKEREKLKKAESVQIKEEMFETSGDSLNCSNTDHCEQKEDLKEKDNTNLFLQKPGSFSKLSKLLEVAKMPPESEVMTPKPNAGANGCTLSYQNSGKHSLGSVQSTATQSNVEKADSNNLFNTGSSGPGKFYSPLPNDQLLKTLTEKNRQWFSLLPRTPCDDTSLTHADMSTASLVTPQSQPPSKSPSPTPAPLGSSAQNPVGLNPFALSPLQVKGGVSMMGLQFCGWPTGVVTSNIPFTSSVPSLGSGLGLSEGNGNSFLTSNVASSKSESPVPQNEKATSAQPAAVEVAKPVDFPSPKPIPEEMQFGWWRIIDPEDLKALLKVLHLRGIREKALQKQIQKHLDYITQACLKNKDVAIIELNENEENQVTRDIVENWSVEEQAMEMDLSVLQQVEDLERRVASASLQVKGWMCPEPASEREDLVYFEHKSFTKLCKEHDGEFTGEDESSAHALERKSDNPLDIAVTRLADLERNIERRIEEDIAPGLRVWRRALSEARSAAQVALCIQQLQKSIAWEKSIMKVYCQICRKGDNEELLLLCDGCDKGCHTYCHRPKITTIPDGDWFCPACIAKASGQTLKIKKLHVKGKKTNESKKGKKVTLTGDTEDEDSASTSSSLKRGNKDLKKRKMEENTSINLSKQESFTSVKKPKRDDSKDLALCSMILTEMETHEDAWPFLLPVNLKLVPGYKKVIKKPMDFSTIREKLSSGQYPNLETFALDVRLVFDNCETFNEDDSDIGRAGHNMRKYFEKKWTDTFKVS
Procedure, shortened: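 BAZ2B (50 nM) with biotin-H3(5-23)K14Ac peptide (50 nM) in PBS pH 7.4, 0.01% Tween-20, preformed 30 min, then compound 30 min at room temperature; top concentration 110uM. AlphaScreen streptavidin donor/nickel chelate acceptor beads (10 ug/mL final), 20 min dark, signal read.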
% is set by controls: 0 for no effect and ±100 for the full control effect; potency is the fitted concentration of half-maximal effect; tags give direction and shape of the fitted curve.
Note: nearly all actives have a fitted effect of over 60% in size.

Structure (SMILES) | Potency | activity change, negative = inhibition
CCCn1c(NCc2ccc(N(C)C)cc2)nc2ccccc21 | inconclusive: 70.8 µM [inhibitor, single point] | –
CCn1c2ccccc2c2cc(CN3CCN(Cc4ccccc4F)CC3)ccc21 | active: 15.8 µM | –
CC1CCN(S(=O)(=O)c2ccc(NC(=O)CN3CCCC3)cc2)CC1 | active: 70.8 µM | –
Cc1ccc(C(=O)N/C(=C\c2cn(C)c3ccccc23)C(=O)NCCN2CCOCC2)cc1 | – | inactive: -35.5%
COc1ccc(-c2csc(N3CCN(C(=O)c4ccccc4)CC3)n2)cc1 | inconclusive: 50.1 µM [inhibitor, partial curve] | –
Nc1nc(-c2ccc(S(=O)(=O)N3CCCCC3)cc2)cs1 | – | inactive: -35.4%
CCOc1ccc(OCC)c(NS(=O)(=O)c2cc(-c3cc(C)no3)ccc2C)c1 | – | inactive: -1.4%
c1ccc2cc(CCCc3cc4ccccc4cn3)ncc2c1 | inconclusive: 100 µM [inhibitor, single point] | –
COc1ccc(Nc2cccc(Cl)c2)c(C(=O)O)c1 | – | inactive: -25.2%
Cc1ccc2nc(-c3ccc(NC(=O)CNC4CC4)cc3)sc2c1 | active: 44.7 µM | –
CCCN(CC(=O)Nc1ccccc1C)C(=O)c1ccc(N2CCCCCC2)c([N+](=O)[O-])c1 | inconclusive: 22.4 µM [inhibitor, partial curve] | –
Cc1ccc(C)c(OCC(=O)NC(Cc2c[nH]c3ccccc23)C(=O)O)c1 (stereo not given) | inconclusive: 79.4 µM [inhibitor, single point] | –
CCCc1sc(N)nc1-c1ccc(C)cc1 | inconclusive: 50.1 µM [inhibitor, partial curve] | –
COc1ccc(-c2[nH]c3ccccc3c2SCCNC(=O)c2cc(OC)c(OC)c(OC)c2)cc1 | inconclusive: 31.6 µM [inhibitor, full curve] | –
COc1ccc(CN(C(=O)/C=C/c2ccco2)C2CCS(=O)(=O)C2)cc1OC (stereo not given) | inconclusive: 50.1 µM [inhibitor, partial curve] | –
Cc1cccc2sc(NNC(=O)c3ccc(S(=O)(=O)N4CC(C)CC(C)C4)cc3)nc12 (stereo not given) | active: 8.91 µM | –
C=CCn1c(C)cc(C(=O)Cn2c(C(C)O)nc3ccccc32)c1C (stereo not given) | inconclusive: 70.8 µM [inhibitor, single point] | –
COc1ccc2[nH]cc(CCNS(=O)(=O)c3ccc(F)cc3)c2c1 | inconclusive: 56.2 µM [inhibitor, partial curve] | –
C=CCn1c(SCC(=O)NCCCC)nc2scc(-c3ccco3)c2c1=O | inconclusive: 89.1 µM [inhibitor, single point] | –
CN(C)c1ccc(Nc2nc(-c3cccnc3)cs2)cc1 | inconclusive: 79.4 µM [inhibitor, single point] | –
CCc1cccc(N(C(=O)c2csnn2)C(C(=O)NC(C)(C)C)c2ccncc2)c1 (stereo not given) | inconclusive: 89.1 µM [inhibitor, single point] | –
O=C(Cc1ccccn1)c1ccccc1 | inconclusive: 89.1 µM [inhibitor, single point] | –
NS(=O)(=O)c1ccc(CCNC(=O)CCNS(=O)(=O)c2ccccc2C(F)(F)F)cc1 | – | inactive: 5.42%
CC1=NN(c2ccccc2)C(=O)/C1=C\c1sccc1C | active: 7.08 µM | –

Structure (SMILES) | Potency | activity change, negative = inhibition
COc1ccc(CN(C(=O)/C=C/c2ccco2)C2CCS(=O)(=O)C2)cc1 (stereo not given) | active: 50.1 µM | –
Cc1ccc(C)c(OCC(=O)Nc2ccc(N3CCOCC3)cc2)c1 | inconclusive: 79.4 µM [inhibitor, single point] | –
CC1=NN(C(=O)CSCc2ccccc2)C(O)(c2ccc(Cl)cc2)C1 (stereo not given) | – | inactive: -3.06%
COc1ccc(-c2cc(OC(=O)c3ccc(Cl)cc3)c3c(C)oc(C)c3c(=O)c2)cc1 | active: 39.8 µM | –
COc1cc(/C=C/C(=O)OCC(=O)NC(=O)NC(C)(C)C)ccc1O | inconclusive: 79.4 µM [inhibitor, single point] | –
Cc1ccc(C(=O)n2c(-c3ccccc3)cnc2SCC(=O)Nc2ccccc2)cc1 | inconclusive: 35.5 µM [inhibitor, partial curve] | –
CCCN(CCO)Cc1ccc(Br)cc1 | inconclusive: 89.1 µM [inhibitor, single point] | –
O=C(CCl)c1cc2c3c(c1)CC(=O)N3CCC2 | inconclusive: 89.1 µM [inhibitor, single point] | –
Cc1n[nH]c(=S)n1-c1ccccc1 | – | inactive: -30.5%
COc1cc(/C=N/Nc2cccc(C)c2)ccc1OC(=O)c1cccs1 | – | inactive: -37.8%
NCCCC[C@@H](C(=O)N1CCNCC1)n1cc([C@@H](N)CC(N)=O)nn1 | inconclusive: 89.1 µM [inhibitor, single point] | –
CCc1ccccc1NC(=O)c1ccc2c(O)c(S(=O)(=O)c3ccccc3)c(=O)[nH]c2c1 | inconclusive: 79.4 µM [inhibitor, single point] | –
NC(=S)N=Nc1c(O)n(CCCl)c2ccccc12 | inconclusive: 63.1 µM [inhibitor, partial curve, poor fit] | –
O=C(NNc1c(Cl)cc(Cl)cc1Cl)c1cccc([N+](=O)[O-])c1 | inconclusive: 79.4 µM [inhibitor, single point] | –
CS(=O)(=O)N1CCN(C(=O)c2cc(-c3cccnc3)nc3ccc(Br)cc23)CC1 | inconclusive: 79.4 µM [inhibitor, single point] | –
O/C(=C\c1ccc2ccccc2n1)c1ccncc1 | – | inactive: 7.06%
COc1cc(/C=C2/NC(=O)N(CC(=O)Nc3cccc(C)c3)C2=O)ccc1OCC(N)=O | – | inactive: -17.1%
O=C(Nc1ccc2c(c1)OCO2)c1cc2nc(C3CC3)cc(C(F)(F)F)n2n1 | inconclusive: 89.1 µM [inhibitor, single point] | –
CN(C)C(=O)N1CCN(c2nc(-c3ccccc3)cs2)CC1 | inconclusive: 50.1 µM [inhibitor, partial curve] | –
COc1ccc2c(c1)CC/C(=C/c1cc(OC)c(OC)c(OC)c1)C2=O | – | inactive: -35.2%
S=C(Nc1cccnc1)NC1CC2CCC1C2 (stereo not given) | active: 70.8 µM | –
COC(=O)c1cccc(-n2c(CCC(=O)O)ccc2-c2ccc(OC)cc2)c1 | inconclusive: 44.7 µM [inhibitor, partial curve] | –
COc1cc(/C=C/C(=O)O)cc(S(=O)(=O)N2CCc3ccccc32)c1OC | – | inactive: -19.3%
Cc1ccc(Cl)cc1NC(=O)C(C)n1nnc2sc(-c3ccccc3)cc2c1=O (stereo not given) | inconclusive: 79.4 µM [inhibitor, single point] | –

Structure (SMILES) | Potency | activity change, negative = inhibition
Cc1cc(C)c(NC(=O)C(C)n2nc(-c3ccc(C)c(C)c3)ccc2=O)c(C)c1 (stereo not given) | inconclusive: 70.8 µM [inhibitor, single point] | –
Nc1ccc(C(=O)OCC(=O)c2cccc([N+](=O)[O-])c2)cc1 | inconclusive: 10 µM [inhibitor, partial curve, poor fit] | –
O=C(NCc1ccc2c(c1)OCO2)Nc1ccc2nsnc2c1 | – | inactive: 2.1%
Cc1ccc(NC(=O)Cc2ccc(-n3c(C)nc4cccnc43)cc2)cc1C | inconclusive: 89.1 µM [inhibitor, single point] | –
COc1ccc(-c2cc(C(C)=O)c(C)n2CCC(=O)NCc2ccccc2OC)cc1 | inconclusive: 89.1 µM [inhibitor, single point] | –
C=CCCC(=O)Nc1nc(C)c(-c2csc(Nc3ccccc3OC)n2)s1 | inconclusive: 79.4 µM [inhibitor, single point] | –
CCc1ccc(C(=O)c2cn(CC(=O)Nc3ccc(F)cc3)c3ccc(OC)cc3c2=O)cc1 | inconclusive: 89.1 µM [inhibitor, single point] | –
COC(=O)C1=C(Nc2ccccc2NS(=O)(=O)c2ccc(C(F)(F)F)cc2Cl)CSC1 | inconclusive: 50.1 µM [inhibitor, partial curve] | –
COc1ccc(/C(C)=N/Nc2cccc(C(=O)O)c2)cc1OC | inconclusive: 79.4 µM [inhibitor, single point] | –
Cc1ccccc1NC(=O)CSc1nc(-c2ccccc2C)nc2cc(=O)[nH]n12 | – | inactive: -18.1%
CCCC(=O)Nc1nc(C)c(-c2csc(Nc3ccccc3C)n2)s1 | inconclusive: 50.1 µM [inhibitor, partial curve] | –
COCCNC(=O)Cn1nc(N2CCN(c3ccccc3OC)CC2)ccc1=O | – | inactive: 2.48%
Clc1ccc(-c2nc3ncccn3c2Nc2ccc3c(c2)OCO3)cc1 | – | inactive: -20.4%
COC(=O)c1ccccc1CSc1nsc(/C=C/N(C)C)c1C#N | active: 44.7 µM | –
COc1ccccc1N1CCN(c2ncnc3c2oc2ccccc23)CC1 | – | inactive: -33.4%
CSc1ncc(CN2CCc3c([nH]c4ccccc34)C2C(C)(C)C)cn1 (stereo not given) | inconclusive: 89.1 µM [inhibitor, single point] | –
COc1ccc(N2CCN(C(=O)c3ccc(N(C)S(=O)(=O)c4ccc(OC)cc4)cc3)CC2)cc1 | inconclusive: 10 µM [inhibitor, full curve, poor fit] | –
O=C1CCN(S(=O)(=O)c2ccccc2)CCN1CCOCc1ccc(F)cc1 | – | inactive: 2.16%
CCn1cc(S(=O)(=O)c2cc(C)cc(C)c2)c(=O)c2cc(F)c(N3CCCC3)cc21 | inconclusive: 89.1 µM [inhibitor, single point] | –
CC1CCCN(c2ccc(/C=C(\C#N)c3nn(-c4ccccc4)c(N)c3C#N)cc2[N+](=O)[O-])C1 (stereo not given) | inconclusive: 7.94 µM [inhibitor, full curve] | –
O=C(NCc1ccco1)c1cc2c(s1)CCCCC2 | inconclusive: 70.8 µM [inhibitor, single point] | –
COc1cc(C(=S)N2CCOCC2)cc(OC)c1OS(=O)(=O)c1ccc(C)cc1 | inconclusive: 89.1 µM [inhibitor, single point] | –
